# Source: PubChem BioAssay AID1347120 (National Center for Advancing Translational Sciences (NCATS), 2019)
# Hit rate of the full screen: of about 390,000 compounds, about 930 (0.24%) were called active. The inconclusive results got no clear call from the source; some entries with a clear call stand among them for comparison. Calls come from the whole dose curve; as a rule, active = well fitted activation curve with a large enough effect; inconclusive = small, poorly fitted or top-dose-only effect; inactive = no such curve, though single readings can be large or run the other way. A potency beside an inconclusive call is a rough fit, not a confirmed value.
# Assay: qHTS for Suppressors of FUS Proteinopathy: Primary screen using FUS-linked yeast assay; note: nearly all actives have a fitted effect of over 55% in size;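 for growth rescue (activation): plate controls were DMSO vehicle for no effect and reference control for full effect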
# Conditions: S. cerevisiae FUS-expressing, OD600, 24 h; Potency: growth rescue; growth rescue (activation): at 76.6 µM (top of the series)
# Summary of the method: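 Steps: raffinose overnight preculture; dilution to OD 0.005 in 2% galactose minimal medium; compound addition (concentration series); 24hr at 30C, 99% humidity; absorbance read at 600 nm.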
# Potency is the fitted concentration of half-maximal effect; tags give direction and shape of the fitted curve.
SMILES,Potency,growth rescue (activation)
COc1ccc(/C=N/Nc2nc(-c3cccnc3)nc3ccccc23)c(OC)c1,inactive,
CC1CCCCC1NC(=O)COC(=O)c1c2c(nc3ccccc13)/C(=C\c1ccco1)CC2 (stereo unspecified),"inconclusive: 8.91 µM [activator, partial curve, poor fit]",
Cn1cccc1-c1cc(C(=O)N/N=C/c2cccc(O)c2)[nH]n1,"inconclusive: 28.2 µM [activator, single point]",
CCC(C)NC(=O)c1sc2nc(C)c(C(=O)Nc3ccc(Cl)cc3)c(-c3ccc(Br)cc3)c2c1N (stereo unspecified),"inconclusive: 11.2 µM [activator, full curve, poor fit]",
COc1ccc2cc(CNc3ccc(OC)c(OC)c3)c(=O)n(CC(=O)Nc3ccc(C)cc3)c2c1,inactive,
O=C(NCc1ccccc1)C1C(c2ccc3c(c2)OCO3)=Nc2ccccc2N1C(=O)c1cccc(C(F)(F)F)c1 (stereo unspecified),"inconclusive: 31.6 µM [activator, single point]",
COc1ccc(-c2nc(CNS(=O)(=O)c3ccc(F)cc3)cs2)cc1,inactive,
Cc1nc(SC2CC(=O)N(c3cc(Cl)cc(Cl)c3)C2=O)nc2c1CCCC2 (stereo unspecified),"inconclusive: 28.2 µM [activator, partial curve, poor fit]",
CC(C)CN1CC(Br)C(=O)NC1=O (stereo unspecified),inactive,
CC(=O)c1cc(-c2ccccc2)n(CCC(=O)Nc2cc(C)cc(C)c2)c1C,"inconclusive: 31.6 µM [activator, single point]",
COc1ccc(OCC(=O)Nc2ccc(N3CCN(Cc4ccccc4F)CC3)cc2)cc1,inactive,
COc1ccc(-c2onc(C)c2C)cc1S(=O)(=O)N1CCC(C)CC1,"inconclusive: 50.1 µM [activator, single point]",
CCCc1c(C(=O)N/N=C(\C)c2ccc(CC(C)C)cc2)nnn1-c1nonc1N,inactive,
CC(C)c1ccc(NC(=O)O[C@@H]2CC[C@@]34CCCN3C(=O)CCC[C@H]4C2)cc1,inactive,
Cc1ccc(-n2ncc3c(NCCC4=CCCCC4)ncnc32)cc1C,inactive,
Cc1cccc(C)c1Cn1c(C)c(C(=O)NCc2cccc(Cl)c2)sc1=O,"inconclusive: 31.6 µM [activator, single point]",
Cc1cccc(-n2ncc(C(=O)NC3CCCC3)c2C2CCN(C(=O)OC(C)(C)C)CC2)c1,"inconclusive: 12.6 µM [activator, partial curve, poor fit]",
COc1ccccc1NC(=O)CN1CCC(n2nnc3cc(F)ccc32)CC1,inactive,
COc1ccc(N=C2C(=Nc3ccc(OC)cc3)N(c3ccc(OC)cc3)C(=S)N2C(=O)c2ccc(OC)cc2)cc1,"inconclusive: 28.2 µM [activator, partial curve, poor fit]",
O=C(COCc1cc(-c2ccco2)on1)Nc1ccc(OC(F)(F)F)cc1,inactive,
CCOc1ccc(CCN2C(=S)N([C@@H](CC(C)C)CN3CCC[C@@H]3CN3C(=S)NC[C@@H]3Cc3ccccc3)C[C@@H]2Cc2ccc(O)cc2)cc1,active: 28.2 µM,

SMILES,Potency,growth rescue (activation)
Cc1ccc(OCCCC(=O)Nc2ccc(Cl)c(S(=O)(=O)N3CCOCC3)c2)cc1,"inconclusive: 35.5 µM [activator, partial curve, poor fit]",
CCOC(=O)c1c(C)oc2c(Cl)cc(NS(=O)(=O)c3ccc(Cl)c(C)c3)cc12,"inconclusive: 50.1 µM [activator, single point]",
CCOC(=O)N1CCN(C(=O)CN(c2ccc(C)cc2C)S(=O)(=O)c2ccccc2)CC1,inactive,
C[C@@H]1[C@@H](O)C[C@@]2(CC(=O)c3ccccc3O2)O[C@H]1c1ccccc1,inactive,
O=C(CN1C(=O)C2(SCC(=O)N2c2cccc(Cl)c2)c2ccccc21)NC1CCCCC1 (stereo unspecified),"inconclusive: 50.1 µM [activator, single point]",
CCC[C@H]1[C@@H](NC(=O)c2ccc(N(C)C)cc2)CC[C@@]23CCCN2C(=O)CCC[C@@H]13,"inconclusive: 14.1 µM [activator, partial curve, poor fit]",
CN(c1ccc(OC(=O)c2ccc(-n3cncn3)c([N+](=O)[O-])c2)cc1)S(=O)(=O)c1ccccc1,"inconclusive: 28.2 µM [activator, partial curve]",
O=C(CSc1nc2ccccc2nc1N1CCCCC1)N1CCN(c2ccccc2)CC1,"inconclusive: 25.1 µM [activator, partial curve]",
Cc1cc(C)c2nc(NNC(=O)c3cc(-c4cccs4)nc4ccccc34)sc2c1,inactive,
NS(=O)(=O)c1ccc(CCNc2nc3c(-c4cccc(F)c4)nnn3c3ccc(Cl)cc23)cc1,inactive,
COc1cc2ccccc2cc1C(=O)Nc1cc(C)ccn1,inactive,
Cc1ccc(/C=C2\SC(=S)N(CCC(=O)NNS(=O)(=O)c3ccccc3)C2=O)cc1,inactive,
COC(=O)[C@]12C[C@H](CC(=O)N3CCC(c4ccccc4)CC3)C(=O)N(CCc3ccc(OC)c(OC)c3)C1=C[C@H](COCc1ccccc1)O[C@@H]2C,"inconclusive: 28.2 µM [activator, single point]",
CCCCCCN1C[C@H](O)[C@@H](n2cc(C3CC3)nn2)C[C@@H]1c1ccc(OC)cc1,inactive,
COc1ccc([C@@H]2CC=C(C(=O)O)[C@H](c3ccc(Br)cc3)N2S(=O)(=O)c2ccccc2C)cc1,"inconclusive: 22.4 µM [activator, single point]",
Cc1ccc(C)c(CN2C(=O)c3ccccc3S(=O)(=O)c3ccc(C(=O)N4CCOCC4)cc32)c1,active: 28.2 µM,
COc1ccc(Cl)cc1N(C)C(=O)Cn1cnc2sc(C)c(S(=O)(=O)N3CCN(c4ncccn4)CC3)c2c1=O,"inconclusive: 12.6 µM [activator, partial curve, poor fit]",
CCOC(=O)c1ccc(NC(=S)P(=O)(c2ccccc2)c2ccccc2)cc1,"inconclusive: 14.1 µM [activator, partial curve]",
CCCCOCCCNC(=O)C[C@@H]1C[C@@]2(C(=O)OCC)CCC=C2N(Cc2ccc3c(c2)OCO3)C1=O,"inconclusive: 10 µM [activator, full curve]",
Cc1onc(C(=O)N2CCN(C(c3ccc(F)cc3)c3ccc(F)cc3)CC2)c1[N+](=O)[O-],"inconclusive: 25.1 µM [activator, single point]",
C=CCOc1cccc(C2C(C(=O)c3cc4ccccc4o3)=C(O)C(=O)N2c2cc(C)on2)c1 (stereo unspecified),"inconclusive: 12.6 µM [activator, partial curve]",

SMILES,Potency,growth rescue (activation)
COC(=O)c1sc(-c2ccc(C(C)(C)C)cc2)cc1NC(=O)CCC(=O)O,"inconclusive: 22.4 µM [activator, partial curve]",
COC(=O)[C@@]12CCCCC=C1N(CCc1ccc(Cl)cc1)C(=O)[C@H]2CC(=O)NCCc1ccccc1OC,"inconclusive: 25.1 µM [activator, single point]",
Cc1ccc(NC(=O)Nc2cccs2)cc1,"inconclusive: 50.1 µM [activator, partial curve, poor fit]",
CCOC(=O)c1c(C)[nH]c(C)c1S(=O)(=O)N1CCCC(C(=O)N2CCN(c3cc(C)ccc3C)CC2)C1 (stereo unspecified),"inconclusive: 28.2 µM [activator, single point]",
CCOc1ccc(N=Nc2ccc(O)c3ncccc23)cc1,inactive,
COc1cc(C#Cc2c(-c3cncn3C)n(C)c3ccc(-c4ccc(OC)nc4)cc23)cc(OC)c1,"inconclusive: 31.6 µM [activator, partial curve, poor fit]",
Cn1c(=O)c2c(nc(NC3CCCCC3)n2Cc2ccccc2)n(C)c1=O,inactive,
NC(=O)NCc1ccc(Cl)cc1,,inconclusive: 53.5% [activator]
COc1cccc(-n2c(SCC(=O)Nc3nccs3)nnc2-c2ccoc2C)c1,"inconclusive: 31.6 µM [activator, single point]",
CCC(=O)N1CCc2cc(S(=O)(=O)NC(CC(C)C)C(=O)Nc3ccc(CC)cc3)ccc21 (stereo unspecified),"inconclusive: 28.2 µM [activator, single point]",
COc1ccc(OC)c(CNCc2c(C(=O)O)n(Cc3ccccc3)c3cc(OC)ccc23)c1,"inconclusive: 50.1 µM [activator, single point]",
CC(C)c1ccc(NC(=O)c2cc([N+](=O)[O-])ccc2N2CCOCC2)cc1,"inconclusive: 15.8 µM [activator, partial curve, poor fit]",
CC1(C)Cc2c(cnn2-c2ccc(F)cc2)C(NC(=O)C2=CC(=O)CC(C)(C)O2)C1 (stereo unspecified),"inconclusive: 14.1 µM [activator, partial curve]",
CCc1ccc(CNc2nc3nc(C)c(Cc4ccccc4)c(=O)n3[nH]2)cc1,inactive,
COc1ccc(NC(=O)N2CCN(c3nc(-c4cccc(OC)c4)cs3)CC2)cc1,"inconclusive: 12.6 µM [activator, partial curve, poor fit]",
Cc1cccc([C@@H]2[C@@H]3C(=O)N(Cc4ccccc4)C(=O)[C@@H]3[C@]3(C)C(=O)N(c4ccc(Br)cc4)C(=O)N23)c1,"inconclusive: 22.4 µM [activator, partial curve, poor fit]",
CCc1ccc2nc(N3CCN(C(=O)c4ccco4)CC3)sc2c1,"inconclusive: 14.1 µM [activator, partial curve]",
O=C(N[C@@H]1C[C@@H]2O[C@@H](CO)CC[C@@H]2O[C@@H]1CCc1ccc(-c2ccccc2)cc1)c1cnccn1,"inconclusive: 28.2 µM [activator, partial curve, poor fit]",
CCN(C(=O)c1cn(C)c(=O)c2cc(OC)c(OC)cc12)c1cc(C)ccc1C,"inconclusive: 14.1 µM [activator, partial curve]",
